# Assay results: the supplement of paper PMC12217912
# The list shows a part of the results. The full chains were built here from the parent and the listed change. Values near 0.05 are background.
# B1: TEV protease; numbered along this chain (parent)
# chain: MGESLFKGPRDYNPISSSICHLTNESDGHTTSLYGIGFGPFIITNKHLFRRNNGTLVVQSLHGVFKVKDTTTLQQHLVDGRDMIIIRMPKDFPPFPQKLKFREPQREERICLVTTNFQTKSMSSMVSDTSCTFPSGDGIFWKHWIQTKDGQCGSPLVSTRDGFIVGIHSASNFTNTNNYFTSVPKNFMELLTNQEAQQWVSGWRLNADSVLWGGHKVFMVKPEEPFQPVKEATQL
# Variants of: B1
# Assay: raw area under fraction-flipped curve 0-4 h after induction (AUC4h, not background-subtracted), DNA-recorder readout of cleavage of the substrate (dimensionless); higher = more cleavage of the substrate by the protease variant
# Conditions: temperature: 34 °C; time window: 0-4 h after rhamnose induction
# 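Note: Bxb1 expression induced with 0.2% (w/v) L-rhamnose at OD600 near 0.5, cultures sampled hourly, flipped fraction per protease–substrate barcode pair counted by paired-end Illumina sequencing.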
Variant,area with substrate ENLYDQS,area with substrate ENLYEQS,area with substrate ENLYGQS,area with substrate ENLYHQS,area with substrate ENLYIQS,area with substrate ENLYKQS,area with substrate ENLYMQS,area with substrate ENLYNQS,area with substrate ENLYPQS,area with substrate ENLYQQS,area with substrate ENLYRQS,area with substrate ENLYSQS,area with substrate ENLYTQS,area with substrate ENLYVQS,area with substrate ENLYWQS,area with substrate ENLYYQS,area with substrate ENLYLQS,area with substrate ENLYCQS
MGESLFKGPRDYNPISSVICHLTNESDGHTTSLYGIGFGPFIITNKHLFRRNNGTLVVQSLHGVFKVKDTTTLQQHLVDGRDMIIIRMPKDFPPFPQKLKFREPQREERICLVTTNFQTKSMSSMVSDTSCTFPSGDGIFWKHWIQTKDGQCGSPLVSTRDGFIVGIHSASNFTNTNNYFTSVPKNFMELLTNQEAQQWVSGWRLNADSVLWGGHKVFMVKPEEPFQPVKEATQL [S18V],0.0522,0.0654,0.0605,0.0636,0.107,0.0618,0.092,0.0627,0.0735,0.0738,0.0638,0.0744,0.0866,0.128,0.0925,0.0719,–,–
MGESLFKGPRDYNPISSYICHLTNESDGHTTSLYGIGFGPFIITNKHLFRRNNGTLVVQSLHGVFKVKDTTTLQQHLVDGRDMIIIRMPKDFPPFPQKLKFREPQREERICLVTTNFQTKSMSSMVSDTSCTFPSGDGIFWKHWIQTKDGQCGSPLVSTRDGFIVGIHSASNFTNTNNYFTSVPKNFMELLTNQEAQQWVSGWRLNADSVLWGGHKVFMVKPEEPFQPVKEATQL [S18Y],0.0716,0.0582,0.0634,0.0618,0.129,0.0591,0.0781,0.0561,–,0.0565,–,0.0595,–,0.0852,0.0669,0.0597,–,–
MQESLFKGPRDYNPISSSICHLTNESDGHTTSLYGIGFGPFIITNKHLFRRNNGTLVVQSLHGVFKVKDTTTLQQHLVDGRDMIIIRMPKDFPPFPQKLKFREPQREERICLVTTNFQTKSMSSMVSDTSCTFPSGDGIFWKHWIQTKDGQCGSPLVSTRDGFIVGIHSASNFTNTNNYFTSVPKNFMELLTNQEAQQWVSGWRLNADSVLWGGHKVFMVKPEEPFQPVKEATQL [G2Q],0.0603,0.0749,0.0666,0.0738,0.123,0.0693,–,0.062,0.0763,–,0.07,0.0738,0.0937,0.126,0.0629,–,0.0785,–
MGESLFKGPRDYNPISSSICHLTNESDGHTTSLYGIGFGPFIITNKHLFRRNNGTLVVQSLHGVFKVKDTTTLQQHLVDGRDMIIIRMPKDFPPFPQKLKFREPQREERICLVTTNFQTKSMSSMVSDTSCTFPSGDGIFWKHWIQTKDGQCGSPLVSTRDGFIVGIHSASNFTNTNNYFTSVPKNFMELLTNQEAQQWVSGWELNADSVLWGGHKVFMVKPEEPFQPVKEATQL [R204E],0.0779,0.097,–,0.0807,0.151,0.0218,–,0.0762,–,0.0692,–,–,0.0706,0.158,0.09,0.0717,0.0982,0.108
MGEVLFKGPRDYNPISSSICHLTNESDGHTTSLYGIGFGPFIITNKHLFRRNNGTLVVQSLHGVFKVKDTTTLQQHLVDGRDMIIIRMPKDFPPFPQKLKFREPQREERICLVTTNFQTKSMSSMVSDTSCTFPSGDGIFWKHWIQTKDGQCGSPLVSTRDGFIVGIHSASNFTNTNNYFTSVPKNFMELLTNQEAQQWVSGWRLNADSVLWGGHKVFMVKPEEPFQPVKEATQL [S4V],0.0638,0.0585,0.0668,0.0628,0.18,–,0.114,0.0746,0.0744,0.0812,0.0607,0.0723,0.0775,–,0.0876,–,0.118,–
MGESLFKGPRKYNPISSSICHLTNESDGHTTSLYGIGFGPFIITNKHLFRRNNGTLVVQSLHGVFKVKDTTTLQQHLVDGRDMIIIRMPKDFPPFPQKLKFREPQREERICLVTTNFQTKSMSSMVSDTSCTFPSGDGIFWKHWIQTKDGQCGSPLVSTRDGFIVGIHSASNFTNTNNYFTSVPKNFMELLTNQEAQQWVSGWRLNADSVLWGGHKVFMVKPEEPFQPVKEATQL [D11K],0.0424,0.0589,0.0737,0.0412,0.156,0.0584,0.0875,0.076,0.0779,–,0.0518,0.0983,–,0.0993,0.0732,0.0715,0.0738,–
MGESLFKGPRRYNPISSSICHLTNESDGHTTSLYGIGFGPFIITNKHLFRRNNGTLVVQSLHGVFKVKDTTTLQQHLVDGRDMIIIRMPKDFPPFPQKLKFREPQREERICLVTTNFQTKSMSSMVSDTSCTFPSGDGIFWKHWIQTKDGQCGSPLVSTRDGFIVGIHSASNFTNTNNYFTSVPKNFMELLTNQEAQQWVSGWRLNADSVLWGGHKVFMVKPEEPFQPVKEATQL [D11R],0.0644,0.0671,0.0861,0.0794,0.135,0.0663,0.0762,0.0708,0.115,0.0627,0.0521,0.0778,0.0899,0.11,–,0.0645,–,–
MGESLFKGPLDYNPISSSICHLTNESDGHTTSLYGIGFGPFIITNKHLFRRNNGTLVVQSLHGVFKVKDTTTLQQHLVDGRDMIIIRMPKDFPPFPQKLKFREPQREERICLVTTNFQTKSMSSMVSDTSCTFPSGDGIFWKHWIQTKDGQCGSPLVSTRDGFIVGIHSASNFTNTNNYFTSVPKNFMELLTNQEAQQWVSGWRLNADSVLWGGHKVFMVKPEEPFQPVKEATQL [R10L],0.0643,0.0739,0.0742,0.0675,0.145,0.02,0.097,0.0862,0.0814,0.0638,–,–,–,–,0.0798,0.0784,–,–
MGESLFKGPRDYNPISSSICHLTNESDGHTTSLYGIGFGPFIITNKHLFRRNNGTLVVQSLHGVFKVKDTTTLQQHLVDGRDMIIIRMPKDFPPFPQKLKFREPQREERICLVTTNFQTKSMSSMVSDTSCTFPSGDGIFWKHWIQTKDGQCGSPLVSTRDGFIVGIHSASNFTNTNNYFTSVPKNFMELLTNQEAQQWVSGWRLNADSVLWGMHKVFMVKPEEPFQPVKEATQL [G214M],0.055,0.0477,0.0554,0.0561,–,0.0812,0.0572,–,–,–,0.06,–,0.0503,0.108,–,–,–,0.06
MGESLFKGPRDYNPISSSICHLTNESDGHTTSLYGIGFGPFIITNKHLFRRNNGTLVVQSLHGVFKVKDTTTLQQHLVDGRDMIIIRMPKDFPPFPQKLKFREPQREERICLVTTNFQTKSMSSMVSDTSCTFPSGDGIFWKHWIQTKDGQCGSPLVSTRDGFIVGIHSASNFTNTNNYFTSVPKNFMELLTNQEAQQWVSGWRLNADSVLWGKHKVFMVKPEEPFQPVKEATQL [G214K],–,0.0708,0.077,–,0.108,0.0513,0.0664,0.0638,–,0.0543,0.0576,–,0.074,0.117,0.0621,–,–,0.0801
MGESLFKGARDYNPISSSICHLTNESDGHTTSLYGIGFGPFIITNKHLFRRNNGTLVVQSLHGVFKVKDTTTLQQHLVDGRDMIIIRMPKDFPPFPQKLKFREPQREERICLVTTNFQTKSMSSMVSDTSCTFPSGDGIFWKHWIQTKDGQCGSPLVSTRDGFIVGIHSASNFTNTNNYFTSVPKNFMELLTNQEAQQWVSGWRLNADSVLWGGHKVFMVKPEEPFQPVKEATQL [P9A],0.0521,0.0699,0.0588,0.0754,0.128,0.0345,0.0883,–,0.0728,–,0.0526,0.0764,0.0795,0.121,0.08,–,–,–
MGESLFKGPRDYNPISSSICHLTNESDGHTTSLYGIGFGPFIITNKHLFRRNNGTLVVQSLHGVFKVKDTTTLQQHLVDGRDMIIIRMPKDFPPFPQKLKFREPQREERICLVTTNFQTKSMSSMVSDTSCTFPSGDGIFWKHWIQTKDGQCGSPLVSTRDGFIVGIHSASNFTNTNNYFTSVPKNFMELLTNQEAQQWVSGWRLNADSVLWGGHKVFMVKPEEPFQPVKEATQM [L235M],0.0652,0.0582,0.0706,0.0569,0.12,0.0652,–,0.0624,0.0507,0.0737,0.068,–,0.0785,0,0.0883,0.0656,0.0857,0.105
MGESLFKGPRDYNPISSSICHLTNESDGHTTSLYGIGFGPFIITNKHLFRRNNGTLVVQSLHGVFKVKDTTTLQQHLVDGRDMIIIRMPKDFPPFPQKLKFREPQREERICLVTTNFQTKSMSSMVSDTSCTFPSGDGIFWKHWIQTKDGQCGSPLVSTRDGFIVGIHSASNFTNTNNYFTSVPKNFMELLTNQEAQQWVSGWRLNADSVLWGGHKVFMVKVEEPFQPVKEATQL [P222V],0.0643,0.0597,0.0607,0.0586,0.101,0.0478,–,0.0645,0.0692,0.0647,0.0593,0.0573,0.066,–,0.0754,0.0769,–,0.0861
MGESLFKGPRDYNPISSSICHLTNESDGHTTSLYGIGFGPFIITNKHLFRRNNGTLVVQSLHGVFKVKDTTTLQQHLVDGRDMIIIRMPKDFPPFPQKLKFREPQREERICLVTTNFQTKSMSSMVSDTSCTFPSGDGIFWKHWIQTKDGQCGSPLVSTRDGFIVGIHSASNFTNTNNYFTSVPKNFMELLTNQEAQQWVSGWRLNADSVLWGGHKVFMVKGEEPFQPVKEATQL [P222G],–,0.067,–,0.0669,0.105,0.05,0.0708,0.0593,–,0.0728,0.0414,–,0.0927,0.0863,–,–,0.0716,0.102
MGESLFKGPRDYNPISSSICHLTNESDGHTTSLYGIGFGPFIITNKHLFRRNNGTLVVQSLHGVFKVKDTTTLQQHLVDGRDMIIIRMPKDFPPFPQKLKFREPQREERICLVTTNFQTKSMSSMVSDTSCTFPSGDGIFWKHWIQTKDGQCGSPLVSTRDGFIVGIHSASNFTNTNNYFTSVPKNFMELLTNQEAQQWVSGWRLNADSVLWGGHKVFMVKMEEPFQPVKEATQL [P222M],0.0467,0.0595,0.0622,0.0636,–,0.0621,0.0703,0.0735,–,–,–,0.0826,0.0917,0.103,0.0695,0.0619,–,0.0902
MGESQFKGPRDYNPISSSICHLTNESDGHTTSLYGIGFGPFIITNKHLFRRNNGTLVVQSLHGVFKVKDTTTLQQHLVDGRDMIIIRMPKDFPPFPQKLKFREPQREERICLVTTNFQTKSMSSMVSDTSCTFPSGDGIFWKHWIQTKDGQCGSPLVSTRDGFIVGIHSASNFTNTNNYFTSVPKNFMELLTNQEAQQWVSGWRLNADSVLWGGHKVFMVKPEEPFQPVKEATQL [L5Q],0.0692,0.0753,0.074,0.0674,–,0.0429,0.0851,0.0627,0.0853,0.0492,–,0.0694,0.105,0.163,0.0768,0.0736,0.0969,–
MGESLFKGPRDYNPISSSICHLTNESDGHTTSLYGIGFGPFIITNKHLFRRNNGTLVVQSLHGVFKVKDTTTLQQHLVDGRDMIIIRMPKDFPPFPQKLKFREPQREERICLVTTNFQTKSMSSMVSDTSCTFPSGDGIFWKHWIQTKDGQCGSPLVSTRDGFIVGIHSASNFTNTNNYFTSVPKNFMELLTNQEAQQWVSGWRLNADSVLWGGHKVFMVKPEEPFQPYKEATQL [V229Y],0.0467,0.0652,0.0718,0.0597,0.111,0.0617,–,0.0662,0.0649,0.0661,0.0635,0.114,0.0777,0.118,0.0749,0.0523,–,0.0828
MGESLFKGPRDYNPISSSICHLTNESDGHTTSLYGIGFGPFIITNKHLFRRNNGTLVVQSLHGVFKVKDTTTLQQHLVDGRDMIIIRMPKDFPPFPQKLKFREPQREERICLVTTNFQTKSMSSMVSDTSCTFPSGDGIFWKHWIQTKDGQCGSPLVSTRDGFIVGIHSASNFTNTNNYFTSVPKNFMELLTNQEAQQWVSGWRLNADSVLWGGHKVFMVKPEEPFMPVKEATQL [Q227M],0.0436,0.0701,0.069,0.0694,0.108,0.0603,0.0847,0.0605,0.0771,0.0931,–,0.0853,–,–,–,–,0.0934,0.0887
